# Laboratory results reported in PubChem BioAssay AID1030 (National Center for Advancing Translational Sciences (NCATS), 2008).
# Several values for one entry are separate records, joined by “and”; a condition that tells them apart may be missing. Equal values may be shown once. Screen size: about 220,000 compounds; about 16,000 (7.3%) were called active. This list was built around the results that the source calls inconclusive (neither active nor inactive); the mix of calls is not that of the screen. The call rests on the fitted dose curve; in most records, active means well fitted inhibition curve with a large enough effect (not every such curve was filed as active); inconclusive means small, poorly fitted or top-dose-only effect, or another doubt; inactive means no such curve, though single readings can be large or run the other way. Potencies of inconclusive entries are left out as doubtful fits.
# Molecular target: Aldehyde dehydrogenase 1A1 (Homo sapiens) (UniProt P00352)
# Sequence of UniProt P00352 (P00352 whole entry, looked up): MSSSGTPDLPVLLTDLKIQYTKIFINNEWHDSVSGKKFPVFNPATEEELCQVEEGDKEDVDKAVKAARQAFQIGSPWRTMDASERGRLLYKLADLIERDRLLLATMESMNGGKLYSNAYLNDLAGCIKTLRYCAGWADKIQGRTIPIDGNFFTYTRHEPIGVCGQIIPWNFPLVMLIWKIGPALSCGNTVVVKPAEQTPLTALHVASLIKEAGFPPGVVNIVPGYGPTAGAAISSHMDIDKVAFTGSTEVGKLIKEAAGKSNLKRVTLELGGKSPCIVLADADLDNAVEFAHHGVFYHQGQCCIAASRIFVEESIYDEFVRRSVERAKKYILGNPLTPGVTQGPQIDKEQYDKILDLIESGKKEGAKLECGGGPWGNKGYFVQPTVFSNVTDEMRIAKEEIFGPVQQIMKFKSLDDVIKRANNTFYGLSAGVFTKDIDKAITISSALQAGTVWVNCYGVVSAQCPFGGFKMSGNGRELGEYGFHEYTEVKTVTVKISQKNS
# Assay: qHTS Assay for Inhibitors of Aldehyde Dehydrogenase 1 (ALDH1A1);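 on activity, negative = inhibition: plate controls were no enzyme wells and a reference inhibitor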
# Conditions: Purified ALDH1A1, NADH fluorescence, propionaldehyde substrate; series mostly up to 75.3 µM; activity, negative = inhibition: at the top concentration
# Potency means the concentration at half of the fitted maximal effect; tags describe the fitted curve by direction and shape.
SMILES,Potency,"activity, negative = inhibition"
CC(=O)Nc1ccc(NC(=O)C(C)OC(=O)C2CC3C=CC2C3)cc1 (stereo not given),"inconclusive [inhibitor, single point]",–
Cc1cccc(Oc2ccc(Cl)cc2N)c1,–,inactive: -0.62%
COC(=O)C1=C(C(=O)OC)[C@@H]2N(C)c3ccc(OC)cc3[C@@]23C[C@@H](C(=O)OC)N(S(=O)(=O)c2ccc4c(c2)OCCN4C)C3=N1,–,inactive: 11.6% [at 13.5 µM]
O=C(Nc1nnc(COc2ccc(Cl)cc2)s1)c1cccs1,active: 10 µM,–
O=C(N/N=C/c1ccc(-c2ccccc2C(=O)O)o1)c1cccs1,"inconclusive [inhibitor, single point]",–
C=CCSC1=N/C(=C\c2ccc(C(=O)O)cc2)C(=O)S1,active: 3.55 µM,–
N#CC1=C(N)NC(SCC(=O)c2ccccc2)=C(C#N)C12CCCC2,active: 12.6 µM,–
COc1ccc(S(=O)(=O)Nc2nnc(C)s2)cc1,"inconclusive [inhibitor, partial curve, poor fit]",–
Cc1sc2nc(SC3CCOC3=O)n(Cc3ccccc3)c(=O)c2c1C (stereo not given),active: 15.8 µM,–
CCOC(=O)C1CCCN(C2CC(=O)N(c3ccc(C(C)C)cc3)C2=O)C1 (stereo not given),active: 10 µM,–
CSCCNC(=O)Nc1c(-c2c(Cl)cccc2Cl)noc1C,–,inactive: 6.97%
CCOCc1cnc(C)nc1NCC(=O)c1c(C)n(C)c2ccc(OC)cc12,active: 31.6 µM,–
Cc1cc(O)cc2c(=O)c3ccccc3sc12,"inconclusive [inhibitor, single point]",–
COC(=O)c1cc2oc3ccccc3c2n1CC(=O)N1CCCc2ccccc21,–,inactive: 4.48%
Cc1cc2nc(Sc3c([N+](=O)[O-])nc(C)n3Cc3ccccc3)[nH]c2cc1C,active: 1.12 µM,–
CCN(C(=O)CSc1nc2cc(Cl)ccc2c(=O)n1Cc1ccco1)C1CCS(=O)(=O)C1 (stereo not given),active: 17.8 µM,–
CCOc1ccc(/C=N/OCC(=O)NC(c2ccccc2)c2ccccc2)cc1,"inconclusive [inhibitor, single point]",–
O=C1CC(SCCc2nc3ccccc3[nH]2)C(=O)N1c1ccc(F)cc1 (stereo not given),"inconclusive [inhibitor, single point]",–
CC(C(N)=O)N1C(=O)c2cccc3cccc1c23 (stereo not given),–,inactive: 5.27%
CC(=O)c1cccc(N=Nc2c(C)[nH]c3ccccc23)c1,"inconclusive [inhibitor, single point]",–
O=C(CCc1nc2ccccc2c(=O)[nH]1)N1CCN(C/C=C/c2ccccc2)CC1,"inconclusive [inhibitor, single point]",–
CC1(C)CC(=O)C(C=NCCN2CCN(CC(=O)Nc3ccccc3)CC2)=C(O)C1,"inconclusive [inhibitor, single point]",–
O=C(COC(=O)C1CCN(S(=O)(=O)c2cccs2)CC1)c1cc2ccccc2o1,active: 15.8 µM,–
Cc1ccc2nc(Cl)c(CN(Cc3cccs3)C(=O)C3CC3)cc2c1,"inconclusive [inhibitor, single point]",–

SMILES,Potency,"activity, negative = inhibition"
COc1ccc(NC(=O)Cc2nnc(SCC(=O)Nc3cc(C)ccc3OC)n2C)cc1,–,inactive: -3.85%
C#CCOCCOCCOCCNc1nc(N2CCN(C(=O)C([C@@H](C)CC)n3cc(C(N)Cc4ccc(O)cc4)nn3)CC2)nc(N2CCN(C(=O)[C@H](CCC(=O)O)n3cc(C(N)[C@H](C)CC)nn3)CC2)n1 (stereo not given in full),"inconclusive [inhibitor, single point]",–
COc1ccc(OCC(=O)Nn2c(-c3ccc(OC)cc3)nc3ccccc3c2=O)cc1,"inconclusive [inhibitor, partial curve]",–
COc1ccc(S(=O)(=O)NCc2ccco2)c2ccccc12,"inconclusive [inhibitor, partial curve]",–
CS(=O)(=O)N1CCN(c2ccc(NC(=S)NC(=O)c3ccc4c(c3)OCO4)cc2)CC1,"inconclusive [inhibitor, single point]",–
O=c1c2ccccc2nc2c3ccccc3c(NCCO)nn12,"inconclusive [inhibitor, partial curve]",–
COc1ccccc1/C=N/NC(=O)CSc1cc(C)nc2ccccc12,"inconclusive [inhibitor, single point]",–
COc1ccc2c(c1)OC(=O)CC2c1ccc2c(c1)OCO2 (stereo not given),"inconclusive [inhibitor, single point]",–
CC(=O)c1sc(N/N=C/c2ccc(C(C)C)cc2)nc1C,"inconclusive [inhibitor, single point]",–
CC1=NN(c2ccccc2)C(=O)C1,active: 10 µM and active: 5.01 µM,–
O=C(NC1CCCCC1)c1cnn2c(C(F)(F)F)cc(-c3ccco3)nc12,"inconclusive [inhibitor, single point]",–
CC(=O)C(Cc1ccc(Cl)nc1)(Cc1ccc(Cl)nc1)C(C)=O,–,inactive: 16%
O=C(CC1C(=O)NCCN1Cc1ccccc1C(F)(F)F)NCCc1ccccn1 (stereo not given),"inconclusive [inhibitor, single point]",–
CC(C)CNC(=O)c1ccccc1SCC(=O)NC12CC3CC(CC(C3)C1)C2,"inconclusive [inhibitor, single point]",–
Cc1cccc(C(=O)NC(=S)Nc2ccc(S(=O)(=O)N3CCCCC3)cc2)c1,active: 8.91 µM,–
CCCCN=C(NNc1ccc(Br)cc1)C(=O)OCC,active: 14.1 µM,–
CCOc1ccc2[nH]c(=O)c(CN(Cc3nnnn3Cc3ccccc3)CC3CCCO3)cc2c1 (stereo not given),"inconclusive [inhibitor, partial curve]",–
CNC(=O)c1ccc(-n2nc(C)cc2-c2ccccc2)cc1,"inconclusive [inhibitor, single point]",–
Cc1ccc(-c2noc(CSc3nnc(-c4ccccc4)n3C)n2)cc1,–,inactive: -1.16%
CC(C)C[C@H](NC(=O)OC(C)(C)C)c1nnc(SCc2ccccc2)o1,–,inactive: -11.1%
CN(C)CCNC(=O)C(C(=O)c1ccc(F)cc1)n1ccccc1=O (stereo not given),–,inactive: 7.24%
O=C(COC(=O)c1cccc(C(F)(F)F)c1)NCc1ccccc1,–,inactive: 7.73%
Cc1ccc(OCc2nnc(SCc3cc(=O)[nH]c4ccccc34)n2-c2ccccc2)cc1,–,inactive: 7.83%
CCOC(=O)Nc1ccc2c(c1)Sc1ccccc1N2C(=O)CCN1CCOCC1,–,inactive: 7.19%

SMILES,Potency,"activity, negative = inhibition"
COc1ccc(NC(=O)/C(C#N)=C\c2cc(C)n(-c3ccc(Oc4ccc([N+](=O)[O-])cn4)cc3)c2C)cc1,–,inactive: -8.37%
COc1ccc(CCNC(=O)c2c(O)c3c([nH]c2=O)CCCC3)cc1,"inconclusive [inhibitor, single point]",–
CC(=O)NC(=C(Cl)Cl)S(=O)(=O)c1ccccc1,–,inactive: -4.83%
COc1ccc(-c2cn3cccnc3n2)cc1,"inconclusive [inhibitor, partial curve]",–
COc1ccc(N2C(=O)c3ccccc3NC23CCCCC3)cc1,"inconclusive [inhibitor, single point]",–
O=C(COc1ccc(Cl)cc1)N1CCN(c2ccc([N+](=O)[O-])c(N3CCOCC3)c2)CC1,"inconclusive [inhibitor, partial curve]",–
O=C(NCc1ccccc1)Nc1cccn(Cc2cccc(F)c2)c1=O,"inconclusive [inhibitor, single point]",–
Cc1ccc2cccc(NC(=O)c3ccc(Br)o3)c2n1,"inconclusive [inhibitor, single point]",–
CCNc1nnc(-c2ccc(C)cc2)o1,"inconclusive [inhibitor, single point]",–
CN(C)Cc1c(O)ccc2[nH]cnc12,"inconclusive [inhibitor, single point]",–
CCc1cccc(CC)c1NC(=O)c1cccc(N)c1,"inconclusive [inhibitor, single point]",–
Cc1ccc2nc(C)c(C(=O)N/N=C/c3cccs3)n2c1,"inconclusive [inhibitor, single point]",–
O=C(Nc1cccc(S(=O)(=O)Nc2ccccc2Cl)c1)c1ccc(N2CCCC2)c([N+](=O)[O-])c1,"inconclusive [inhibitor, full curve]",–
NC(=O)c1nsc(C(=O)N(CCc2ccccc2)C(C(=O)NC2CCCC2)c2ccco2)c1N (stereo not given),"inconclusive [inhibitor, single point]",–
COc1cccc(N(C(=O)c2ccco2)c2nc(-c3sc(NC(=O)c4ccco4)nc3C)cs2)c1,"inconclusive [inhibitor, single point]",–
CC1CCc2c(sc(NC(=O)COC(=O)c3ccccc3NCc3ccco3)c2C#N)C1 (stereo not given),"inconclusive [inhibitor, partial curve]",–
COC(=O)c1ccc(OC(=O)c2ccc(OCc3c(C)noc3C)c(OC)c2)cc1,–,inactive: 0.166%
N=c1c(C(=O)NCc2ccc(F)cc2)cc2c(=O)n3ccccc3nc2n1Cc1cccnc1,"inconclusive [inhibitor, partial curve]",–
CC(=O)Nc1ccc(S(=O)(=O)NCCSCc2ccco2)cc1,–,inactive: 3.1%
CC(C)c1nnc(NC(=O)CS(=O)(=O)Cc2ccccc2)s1,active: 7.94 µM,–
O=C(NCc1ccccc1)c1ccc2nc(-c3ccco3)c(-c3ccco3)nc2c1,"inconclusive [inhibitor, partial curve]",–
N#C/C(=C\c1c[nH]c2ccccc12)C(=O)c1ccc(O)c(O)c1,"inconclusive [inhibitor, partial curve, poor fit]",–
